# The list shows a part of the results.
# Columns and labels:
# Assay in all cases: glycan array binding signal (z-score within array); higher = stronger binding
# Settings in all cases: glycan notation: IUPAC condensed, linker removed
# [1] = target: Gal(b1-3)[Fuc(a1-4)]GlcNAc(b1-3)Gal(b1-4)Glc
# Outline: (§1)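 Glycan array binding is given as a within-array Z-score, which can be read as non-binding when negative. The arrays, 3228 of them, came from the Consortium for Functional Glycomics database and were retained only where the protein sequence was available. Z-scores were averaged across arrays of the same protein sequence at different concentrations or buffers and across linkers.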
# [2] = target: Gal(b1-3)[Fuc(a1-4)]GlcNAc(b1-3)Gal(b1-4)[Fuc(a1-3)]Glc
# Outline: as §1
# [3] = target: Gal(b1-3)[Fuc(a1-4)]GlcNAc(b1-3)Gal(b1-4)[Fuc(a1-3)]GlcNAc(b1-3)Gal(b1-4)Glc
# Outline: as §1
# [4] = target: Gal(b1-3)[Fuc(a1-4)]GlcNAc(b1-3)Gal(b1-4)[Fuc(a1-3)]GlcNAc(b1-6)[Gal(b1-3)[Fuc(a1-4)]GlcNAc(b1-3)]Gal(b1-4)Glc
# Outline: as §1
# [5] = target: Gal(b1-3)[Fuc(a1-4)]GlcNAc(b1-3)[Fuc(a1-3)[Gal(b1-4)]GlcNAc(b1-6)]Gal(b1-4)Glc
# Outline: as §1
# [6] = target: Gal(b1-3)[Neu5Ac(a2-6)]GlcNAc(b1-3)Gal(b1-4)Glc
# Outline: as §1
# Gal(b1-4)Glc = target: Gal(b1-4)Glc
# Outline: as §1
# Gal(b1-4)GlcNAc = target: Gal(b1-4)GlcNAc
# Outline: as §1
# [7] = target: Gal(b1-4)GlcNAc(b1-2)Man(a1-3)[Gal(b1-4)GlcNAc(b1-2)Man(a1-6)]Man(b1-4)GlcNAc(b1-4)GlcNAc
# Outline: as §1
# [8] = target: Gal(b1-4)GlcNAc(b1-2)Man(a1-3)[Gal(b1-4)GlcNAc(b1-2)Man(a1-6)]Man(b1-4)GlcNAc(b1-4)[Fuc(a1-6)]GlcNAc
# Outline: as §1
# [9] = target: Gal(b1-4)GlcNAc(b1-2)Man(a1-3)[Gal(b1-4)GlcNAc(b1-2)Man(a1-6)][GlcNAc(b1-4)]Man(b1-4)GlcNAc(b1-4)[Fuc(a1-6)]GlcNAc
# Outline: as §1
# [10] = target: Gal(b1-4)GlcNAc(b1-2)Man(a1-3)[Man(a1-6)]Man(b1-4)GlcNAc(b1-4)GlcNAc
# Outline: as §1
# [11] = target: Gal(b1-4)GlcNAc(b1-2)Man(a1-6)[GlcNAc(b1-2)Man(a1-3)]Man(b1-4)GlcNAc(b1-4)[Fuc(a1-6)]GlcNAc
# Outline: as §1
# [12] = target: Gal(b1-4)GlcNAc(b1-2)Man(a1-6)[Man(a1-3)]Man(b1-4)GlcNAc(b1-4)GlcNAc
# Outline: as §1
# [13] = target: Gal(b1-4)GlcNAc(b1-2)Man(a1-6)[Man(a1-3)]Man(b1-4)GlcNAc(b1-4)[Fuc(a1-6)]GlcNAc
# Outline: as §1
# [14] = target: Gal(b1-4)GlcNAc(b1-2)[Gal(b1-4)GlcNAc(b1-4)]Man(a1-3)[Fuc(a1-3)[Gal(b1-4)]GlcNAc(b1-2)Man(a1-6)]Man(b1-4)GlcNAc(b1-4)GlcNAc
# Outline: as §1
# [15] = target: Gal(b1-4)GlcNAc(b1-2)[Gal(b1-4)GlcNAc(b1-4)]Man(a1-3)[Gal(b1-4)GlcNAc(b1-2)Man(a1-6)]Man(b1-4)GlcNAc(b1-4)GlcNAc
# Outline: as §1
# [16] = target: Gal(b1-4)GlcNAc(b1-2)[Gal(b1-4)GlcNAc(b1-4)]Man(a1-3)[Gal(b1-4)GlcNAc(b1-2)[Gal(b1-4)GlcNAc(b1-6)]Man(a1-6)]Man(b1-4)GlcNAc(b1-4)GlcNAc
# Outline: as §1
# Gal(b1-4)GlcNAc(b1-3)Fuc = target: Gal(b1-4)GlcNAc(b1-3)Fuc
# Outline: as §1
# [17] = target: Gal(b1-4)GlcNAc(b1-3)Gal(b1-4)Glc
# Outline: as §1
# [18] = target: Gal(b1-4)GlcNAc(b1-3)Gal(b1-4)GlcNAc(b1-3)Gal(b1-4)Glc
# Outline: as §1
# [19] = target: Gal(b1-4)GlcNAc(b1-3)[Fuc(a1-3)[Gal(b1-4)]GlcNAc(b1-6)]Gal(b1-4)Glc
# Outline: as §1
# [20] = target: Gal(b1-4)GlcNAc(b1-3)[Gal(b1-4)GlcNAc(b1-6)]Gal(b1-4)Glc
# Outline: as §1
# [21] = target: Gal(b1-4)GlcNAc(b1-3)[Gal(b1-4)GlcNAc(b1-6)]Gal(b1-4)GlcNAc(b1-3)Gal(b1-4)Glc
# Outline: as §1
# [22] = target: Gal(b1-4)GlcNAc(b1-3)[Gal(b1-4)GlcNAc(b1-6)]Gal(b1-4)GlcNAc(b1-3)[Gal(b1-4)GlcNAc(b1-6)]Gal(b1-4)GlcNAc(b1-3)Gal(b1-4)Glc
# Outline: as §1
# [23] = target: Gal(b1-4)GlcNAc(b1-3)[Gal(b1-4)GlcNAc(b1-6)]Gal(b1-4)GlcNAc(b1-3)[Gal(b1-4)GlcNAc(b1-6)]Gal(b1-4)GlcNAc(b1-3)[Gal(b1-4)GlcNAc(b1-6)]Gal(b1-4)GlcNAc(b1-3)Gal(b1-4)Glc
# Outline: as §1
# [24] = target: Gal(b1-4)GlcNAc(b1-3)[Gal(b1-4)GlcNAc(b1-6)]Gal(b1-4)GlcNAc(b1-3)[Gal(b1-4)GlcNAc(b1-6)]Gal(b1-4)GlcNAc(b1-3)[Gal(b1-4)GlcNAc(b1-6)]Gal(b1-4)GlcNAc(b1-3)[Gal(b1-4)GlcNAc(b1-6)]Gal(b1-4)GlcNAc(b1-3)Gal(b1-4)Glc
# Outline: as §1
# Gal(b1-6)GalNAc = target: Gal(b1-6)GalNAc
# Outline: as §1
# [25] = target: Gal3S(b1-3)GalNAc(b1-4)Gal3S(b1-4)Glc
# Outline: as §1
# [26] = target: Gal3S(b1-3)[Fuc(a1-4)]GlcNAc
# Outline: as §1
# [27] = target: Gal3S(b1-3)[Fuc(a1-4)]GlcNAc(b1-3)Gal(b1-4)Glc
# Outline: as §1
# Gal3S(b1-4)Glc = target: Gal3S(b1-4)Glc
# Outline: as §1
# Gal3S(b1-4)GlcNAc = target: Gal3S(b1-4)GlcNAc
# Outline: as §1
# [28] = target: Gal3S(b1-4)GlcNAc(b1-3)Gal
# Outline: as §1
# [29] = target: Gal6S(b1-3)[Fuc(a1-4)]GlcNAc(b1-3)Gal(b1-4)Glc
# Outline: as §1
# GalNAc(a1-3)Gal(b1-4)Glc = target: GalNAc(a1-3)Gal(b1-4)Glc
# Outline: as §1
# GalNAc(a1-3)GalNAc = target: GalNAc(a1-3)GalNAc
# Outline: as §1
# GalNAc(b1-4)Gal(b1-4)Glc = target: GalNAc(b1-4)Gal(b1-4)Glc
# Outline: as §1
# [30] = target: GalNAc(b1-4)Gal3S(b1-4)Glc
# Outline: as §1
# [31] = target: GalNAc(b1-4)[Neu5Ac(a2-6)]Gal(b1-4)Glc
# Outline: as §1
# [32] = target: GalNAc3S(b1-4)Gal3S(b1-4)Glc
# Outline: as §1
# Glc(a1-2)Glc = target: Glc(a1-2)Glc
# Outline: as §1
# [33] = target: Glc(a1-2)Glc(a1-3)Glc(a1-3)Man(a1-2)Man(a1-2)Man(a1-3)[Man(a1-2)Man(a1-3)[Man(a1-2)Man(a1-6)]Man(a1-6)]Man(b1-4)GlcNAc
# Outline: as §1
# [34] = target: Glc(a1-2)Glc(a1-3)Glc(a1-3)Man(a1-2)Man(a1-2)Man(a1-3)[Man(a1-3)[Man(a1-6)]Man(a1-6)]Man(b1-4)GlcNAc
# Outline: as §1
# Glc(a1-3)Glc = target: Glc(a1-3)Glc
# Outline: as §1
binder,measurement,setting,value
"ZG16p (Homo sapiens), O60844 (protein) ARSSSYSGEYGGGGGKRFSHSGNQLDGPITALRVRVNTYYIVGLQVRYGKVWSDYVGGRNGDLEEIFLHPGESVIQVSGKYKWYLKKLLFVTDKGRYLSFGKDSGTSFNAVPLHPNTVLRFISGRSGSLIDAIGLHWDVYPSSCSRC",glycan array binding signal (z-score),[1],-0.328
same,glycan array binding signal (z-score),[2],-0.328
same,glycan array binding signal (z-score),[3],-0.328
same,glycan array binding signal (z-score),[4],-0.328
same,glycan array binding signal (z-score),[5],-0.328
same,glycan array binding signal (z-score),[6],-0.328
same,glycan array binding signal (z-score),Gal(b1-4)Glc,-0.133
same,glycan array binding signal (z-score),Gal(b1-4)GlcNAc,0.209
same,glycan array binding signal (z-score),[7],-0.355
same,glycan array binding signal (z-score),[8],-0.42
same,glycan array binding signal (z-score),[9],-0.42
same,glycan array binding signal (z-score),[10],-0.273
same,glycan array binding signal (z-score),[11],-0.395
same,glycan array binding signal (z-score),[12],-0.107
same,glycan array binding signal (z-score),[13],-0.092
same,glycan array binding signal (z-score),[14],-0.42
same,glycan array binding signal (z-score),[15],-0.328
same,glycan array binding signal (z-score),[16],-0.42
same,glycan array binding signal (z-score),Gal(b1-4)GlcNAc(b1-3)Fuc,-0.328
same,glycan array binding signal (z-score),[17],-0.206
same,glycan array binding signal (z-score),[18],-0.328
same,glycan array binding signal (z-score),[19],-0.328
same,glycan array binding signal (z-score),[20],-0.328
same,glycan array binding signal (z-score),[21],-0.328
same,glycan array binding signal (z-score),[22],-0.311
same,glycan array binding signal (z-score),[23],-0.328
same,glycan array binding signal (z-score),[24],-0.328
same,glycan array binding signal (z-score),Gal(b1-6)GalNAc,-0.191
same,glycan array binding signal (z-score),[25],-0.328
same,glycan array binding signal (z-score),[26],-0.328
same,glycan array binding signal (z-score),[27],-0.328
same,glycan array binding signal (z-score),Gal3S(b1-4)Glc,-0.328
same,glycan array binding signal (z-score),Gal3S(b1-4)GlcNAc,-0.296
same,glycan array binding signal (z-score),[28],-0.195
same,glycan array binding signal (z-score),[29],-0.328
same,glycan array binding signal (z-score),GalNAc(a1-3)Gal(b1-4)Glc,-0.328
same,glycan array binding signal (z-score),GalNAc(a1-3)GalNAc,-0.283
same,glycan array binding signal (z-score),GalNAc(b1-4)Gal(b1-4)Glc,-0.21
same,glycan array binding signal (z-score),[30],-0.328
same,glycan array binding signal (z-score),[31],-0.328
same,glycan array binding signal (z-score),[32],-0.314
same,glycan array binding signal (z-score),Glc(a1-2)Glc,1.24
same,glycan array binding signal (z-score),[33],-0.512
same,glycan array binding signal (z-score),[34],0.627
same,glycan array binding signal (z-score),Glc(a1-3)Glc,2.88

# Reference: the supplement of paper PMC8728848
